Experimental data published in PubChem BioAssay AID1347043 (National Center for Advancing Translational Sciences (NCATS), 2019).
The campaign covered roughly 76,000 compounds. About 1,900 (2.5%) were called active. The inconclusive results got no clear call from the source; some entries with a clear call stand among them for comparison. Calls come from the whole dose curve; as a rule, active = well fitted inhibition curve with a large enough effect; inconclusive = small, poorly fitted or top-dose-only effect; inactive = flat fitted curve, though single readings scatter. Where the call is inconclusive, the potency comes from a doubtful curve fit.

target: Luciferin 4-monooxygenase (Photinus pyralis) (UniProt P08659); experiment: Firefly luciferase inhibition profiling of diverse chemical library using quantitative high-throughput screening; note: nearly all actives have a fitted effect of over 65% in size; details: purified P. pyralis luciferase, luminescence, biochemical; series mostly up to 172 µM; activity change, negative = inhibition: at the top concentration
How it was run: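 Luminescence read by CCD imaging after purified firefly luciferase (10nM final) was added to substrate buffer holding 10uM D-luciferin and 10uM ATP, pH 7.5, pre-dosed with compound.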
% is set by controls: 0 for no effect and ±100 for the full control effect; potency is the fitted concentration of half-maximal effect; tags give direction and shape of the fitted curve.

UniProt P08659, sequence (P08659 whole entry, looked up): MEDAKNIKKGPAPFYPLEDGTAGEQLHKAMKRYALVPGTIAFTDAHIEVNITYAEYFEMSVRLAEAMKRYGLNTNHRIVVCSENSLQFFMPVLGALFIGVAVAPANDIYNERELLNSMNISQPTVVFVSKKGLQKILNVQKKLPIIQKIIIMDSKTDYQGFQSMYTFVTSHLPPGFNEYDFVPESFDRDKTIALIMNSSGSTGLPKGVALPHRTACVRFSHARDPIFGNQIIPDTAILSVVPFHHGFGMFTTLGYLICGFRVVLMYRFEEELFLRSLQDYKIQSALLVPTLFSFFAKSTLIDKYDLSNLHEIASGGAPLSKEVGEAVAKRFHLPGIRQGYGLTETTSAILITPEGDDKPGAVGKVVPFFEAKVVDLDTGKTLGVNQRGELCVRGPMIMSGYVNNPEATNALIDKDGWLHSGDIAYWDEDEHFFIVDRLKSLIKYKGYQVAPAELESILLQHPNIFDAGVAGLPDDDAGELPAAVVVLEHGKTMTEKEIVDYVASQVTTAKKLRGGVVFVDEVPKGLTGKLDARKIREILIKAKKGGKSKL

| SMILES | Potency | activity change, negative = inhibition |
| --- | --- | --- |
| CC(C)(C)CC(=O)N1C[C@@H]2C[C@H](C1)c1ccc(NC(=O)Nc3cccc(F)c3)c(=O)n1C2 | active: 14.1 µM | – |
| CCn1ccc(C(=O)N2CCC3(CC2)NCc2ccccc2-n2ccnc23)n1 | – | inactive: 14.9% [at 115 µM] |
| O=C(c1ccccc1)N1C[C@@H]2C[C@H](C1)c1c(-c3cccnc3)ccc(=O)n1C2 | – | inactive: 2.19% |
| CC(C)c1ccc(NC(=O)OC[C@H]2C[C@@H]3CCN2C[C@@H]3c2cc(C3CCCC3)nc(-c3ccncc3)n2)cc1 | inconclusive: 79.4 µM [inhibitor, partial curve, poor fit] | – |
| CN1CCN(C(=O)Cc2c[nH]c3ncc(-c4ccccc4F)cc23)CC1 | inconclusive: 79.4 µM [inhibitor, partial curve] | – |
| O=C(Nc1ccc2n(c1=O)C[C@H]1C[C@@H]2CN(Cc2ccc(F)cc2)C1)c1cccs1 | inconclusive: 112 µM [inhibitor, partial curve, poor fit] | – |
| COc1ccc(CCC(=O)N2[C@H]3CC[C@@H]2c2cnc(-c4ccc(F)cc4)nc2C3)cc1 | inconclusive: 89.1 µM [inhibitor, single point] | – |
| O=C(Nc1ccc2n(c1=O)C[C@H]1C[C@@H]2CN(C(=O)c2ccccc2)C1)NC1CCCCC1 | inconclusive: 44.7 µM [inhibitor, partial curve, poor fit] | – |
| COc1ccc(-c2cn(C[C@H]3CC4CCN3C[C@@H]4C(=O)NCCNC(C)=O)nn2)cc1 (stereo not given in full) | – | inactive: 0.31% |
| CC1CCN(C[C@H]2CN3CC[C@H]2C[C@@H]3CNC(=O)Nc2ccccc2)CC1 | inconclusive: 126 µM [inhibitor, single point] | – |
| COc1ccc(-c2cc3c(cn2)CN(C)CCN3)cc1OC | inconclusive: 7.94 µM [inhibitor, full curve] | – |
| O=C1Nc2ccccc2CC12CCN2Cc1ccccn1 (stereo not given) | – | inactive: 3.54% |
| O=C(COc1ccccc1)N1[C@H]2CC[C@@H]1c1cnc(-c3ccc(F)cc3)nc1C2 | – | inactive: -6.57% [at 115 µM] |
| CC[C@H]1CN2CC[C@H]1C[C@@H]2COC(=O)Nc1ccccc1 | inconclusive: 100 µM [inhibitor, partial curve] | – |
| COc1ccc2c(c1)C1(CCN(C(=O)COc3cccc(C)c3)C1)C(=O)N2C (stereo not given) | inconclusive: 56.2 µM [inhibitor, partial curve, poor fit] | – |
| COc1ccc2c(c1)C1(CCN(C(=O)Nc3ccc4c(c3)OCCO4)C1)C(=O)N2C (stereo not given) | active: 10 µM | – |
| CC[C@H]1CN2CC[C@H]1C[C@@H]2COC(=O)Nc1ccc(C(C)(C)C)cc1 | inconclusive: 56.2 µM [inhibitor, partial curve] | – |
| Cc1nc(-c2ccc(N(C)C)cc2)cc([C@H]2CN3CC[C@H]2C[C@@H]3CNCc2cccc(C#N)c2)n1 | inconclusive: 50.1 µM [inhibitor, partial curve] | – |
| O=C(NCc1ccco1)[C@H]1CN2CCC1C[C@@H]2Cn1cc(CO)nn1 (stereo not given in full) | – | inactive: -13.8% |
| Cn1nc2n(c1=O)CCC(NC(=O)c1nn(C)c3ccccc13)CC2 (stereo not given) | – | inactive: -1.1% [at 115 µM] |
| O=C(Cc1cccc(F)c1)N1CCN2CCS(=O)(=O)N(C3CC3)C(=O)C2C1 (stereo not given) | – | inactive: -4.29% [at 115 µM] |
| Cn1nc(C2CCCCC2)cc1[C@H]1CN2CC[C@H]1C[C@@H]2CNC(=O)COc1ccccc1 | – | inactive: 1.69% [at 115 µM] |
| Cn1nc(-c2ccc3ccccc3c2)cc1[C@H]1CN2CC[C@H]1C[C@@H]2CNS(=O)(=O)c1ccccc1 | inconclusive: 100 µM [inhibitor, single point] | – |
| O=C(CCc1nc2ccccc2[nH]1)N1[C@H]2CC[C@@H]1c1cnc(-c3ccc(F)cc3)nc1C2 | – | inactive: -3.57% [at 115 µM] |

| SMILES | Potency | activity change, negative = inhibition |
| --- | --- | --- |
| COc1cc(NC(=O)OC[C@H]2C[C@@H]3CCN2C[C@@H]3c2cc(-c3ccc(N(C)C)cc3)nc(C)n2)cc(OC)c1 | inconclusive: 79.4 µM [inhibitor, single point] | – |
| CCC1(N2CCN(C(=O)Cc3ccccc3F)CC2)CCN(S(C)(=O)=O)C1 (stereo not given) | inconclusive: 44.7 µM [inhibitor, partial curve] | – |
| COc1cc2c(cc1OCC1CC1)NC(=O)C21CCN(Cc2ccccc2O)CC1 | – | inactive: -18.2% |
| Cc1nc(-c2ccco2)cc([C@H]2CN3CC[C@H]2C[C@@H]3CNCC2CCCCC2)n1 | – | inactive: 7.99% |
| CC(=O)N1C[C@@H]2C[C@H](C1)c1ccc(NC(=O)c3ccc(F)cc3)c(=O)n1C2 | – | inactive: -3.96% |
| Cc1ccc(C(=O)NC[C@H]2C[C@@H]3CCN2C[C@@H]3c2cc(-c3ccco3)nc(C)n2)cc1 | – | inactive: 10.1% |
| C#CCN(C)C[C@H]1CN2CC[C@H]1C[C@@H]2CNC(=O)Nc1ccccc1 | inconclusive: 79.4 µM [inhibitor, partial curve] | – |
| CC(C)N1CC2CCC(C1)N2Cc1ccc(-c2cncnc2)cc1 | – | inactive: 6.47% |
| COc1cc2c(cc1OCc1ccccc1)NC(=O)C21CCN(Cc2c(C)noc2C)CC1 | inconclusive: 50.1 µM [inhibitor, partial curve] | – |
| CN(C)c1ccc(C(=O)NC[C@H]2C[C@@H]3CCN2C[C@@H]3CN(C)c2ccccc2)cc1 | – | inactive: -10.9% |
| CN1CCN(C(=O)Cc2c[nH]c3ncc(-c4cccc(Cl)c4)cc23)CC1 | – | inactive: 3.27% |
| COc1cc2c(cc1OCC1CCCC1)N([S+](=O)([O-])c1cccc(C(F)(F)F)c1)CC21CCN(CC(=O)O)CC1 | – | inactive: 1.1% [at 115 µM] |
| Cn1cc(-c2cnc3[nH]cc(CC(=O)N4CCN(Cc5ccccc5)CC4)c3c2)cn1 | inconclusive: 112 µM [inhibitor, single point] | – |
| CC[C@H]1CN2CC[C@H]1C[C@@H]2CNC(=O)NC(C)C | – | inactive: -9% [at 230 µM] |
| COc1ccc2c(c1)C1(CCN(C(=O)Nc3ccc4c(c3)OCO4)C1)C(=O)N2 (stereo not given) | inconclusive: 44.7 µM [inhibitor, partial curve] | – |
| CN1CCN(C(=O)Cc2c[nH]c3ncc(-c4ccc(F)c(Cl)c4)cc23)CC1 | – | inactive: -0.81% |
| Cc1cccc(C(=O)N2[C@H]3CC[C@@H]2c2cnc(-c4ccccc4)nc2C3)c1 | – | inactive: 2.26% [at 115 µM] |
| CC[C@H]1CN2CC[C@H]1C[C@@H]2CNC(=O)c1ccc2ccccc2c1 | – | inactive: -1.79% |
| CCn1nccc1C(=O)N1[C@H]2CC[C@@H]1c1cnc(-c3ccc(F)cc3)nc1C2 | – | inactive: 2.91% [at 115 µM] |
| COc1cc2c(cc1Oc1cccc(N(C)C)c1)NC(=O)C21CCN(c2ncccn2)CC1 | – | inactive: 1.49% [at 115 µM] |
| O=[S+]1([O-])NC2(CCN(Cc3ccncc3)C2)CNc2ccccc21 (stereo not given) | – | inactive: -5.53% [at 115 µM] |
| COCC(=O)NC[C@H]1C[C@@H]2CCN1C[C@@H]2c1cc(-c2ccc3ccccc3c2)nn1C | inconclusive: 89.1 µM [inhibitor, partial curve, poor fit] | – |
| Cc1cccc([C@H]2C[C@@H](O)[C@@H](O)[C@@H]2NCC2CCCC2)c1 | – | inactive: 6.33% [at 230 µM] |
| O=C1CS(=O)C2(CCNCC2)N1C1CCCC1 (stereo not given) | – | inactive: 2.15% [at 115 µM] |

| SMILES | Potency | activity change, negative = inhibition |
| --- | --- | --- |
| CCCN1CCNc2cc(Nc3ccccc3)ncc2C1 | active: 6.31 µM | – |
| CN1CCN(C(=O)Cc2c[nH]c3ncc(-c4cccc(O)c4)cc23)CC1 | inconclusive: 63.1 µM [inhibitor, full curve] | – |
| COCCN1C[C@@H]2CN(C(=O)c3cnc[nH]c3=O)C[C@]2(C(=O)O)C1 | inconclusive: 35.5 µM [inhibitor, partial curve, poor fit] | – |
| CN1CCN(C(=O)Cc2c[nH]c3ncc(-c4ccc(Cl)cc4)cc23)CC1 | active: 22.4 µM | – |
| Cn1nc(-c2ccc3ccccc3c2)cc1[C@H]1CN2CC[C@H]1C[C@@H]2CNS(=O)(=O)c1cccs1 | inconclusive: 44.7 µM [inhibitor, partial curve] | – |
| CCN(CC)C[C@H]1CN2CC[C@H]1C[C@@H]2CNC(=O)Nc1ccccc1 | inconclusive: 100 µM [inhibitor, partial curve, poor fit] | – |
| COc1cc2c(cc1-c1ccc(O)c(F)c1)NC(=O)C21CCN(C(C)=O)CC1 | – | inactive: 10% |
| CN1Cc2ccccc2-n2ccnc2C12CCN(C(=O)c1ccc(F)c(F)c1)CC2 | – | inactive: 12.2% [at 115 µM] |
| O=C(O)COCC(=O)N1C[C@@H]2C[C@H](C1)c1ccc(-c3cc4ccccc4s3)c(=O)n1C2 | inconclusive: 44.7 µM [inhibitor, partial curve] | – |
| COc1cc2c(cc1OCc1ccccc1)NC(=O)C21CCN(c2nc(C)cnc2C)CC1 | – | inactive: 1.57% [at 115 µM] |
| Cn1nc(-c2ccc3ccccc3c2)cc1[C@H]1CN2CC[C@H]1C[C@@H]2COC(=O)Nc1cccc(C(F)(F)F)c1 | – | inactive: -4.34% [at 115 µM] |
| COc1cc2c(cc1OCC1CC1)NC(=O)C21CCN(C(=O)c2cccc(O)c2)CC1 | – | inactive: -11.3% |
| CCC1(N2CCN(C(=O)Cc3ccccc3OC)CC2)CCN(C(=O)NC)C1 (stereo not given) | inconclusive: 44.7 µM [inhibitor, partial curve] | – |
| Cc1cc(-c2cc3c(cn2)CN(CC(C)C)CCN3)ccn1 | active: 4.47 µM | – |
| COc1cccc(Nc2cc3c(cn2)CN(C)CCN3C)c1 | active: 39.8 µM | – |
| CC(C)(C)c1ccc(-c2cn(C[C@H]3CC4CCN3C[C@@H]4C(=O)Nc3ccccc3)nn2)cc1 (stereo not given in full) | inconclusive: 39.8 µM [inhibitor, partial curve] | – |
| C#C[C@H]1CN2CC[C@H]1C[C@@H]2COC(=O)Nc1ccc(Br)cc1 | – | inactive: -4.22% |
| Cc1nc(-c2ccc(F)cc2)cc([C@H]2CN3CC[C@H]2C[C@@H]3CNC(=O)c2ccco2)n1 | – | inactive: 0.171% |
| Cn1nc(-c2ccc3ccccc3c2)cc1[C@H]1CN2CC[C@H]1C[C@@H]2COC(=O)Nc1ccccc1 | inconclusive: 89.1 µM [inhibitor, partial curve, poor fit] | – |
| Cc1cccc(OCC(=O)N2[C@H]3CC[C@@H]2c2cnc(-c4ccc(F)cc4)nc2C3)c1 | – | inactive: 3.44% [at 115 µM] |
| Cc1nc(-c2ccco2)cc([C@H]2CN3CC[C@H]2C[C@@H]3CNC(=O)C(C)(C)C)n1 | – | inactive: 5.48% |
| Cc1cccc(OCC(=O)N2CCN(Cc3ccc(=O)n(C)c3)CC2)c1 | – | inactive: -0.292% [at 115 µM] |
